Some of the results follow.

The chains are these.
B1: PhoQ; a variant is named by its letters at X, in order, P23837 (parent)
chain: MKKLLRLFFPLSLRVRFLLATAAVVLVLSLAYGMVALIGYSVSFDKTTFRLLRGESNLFYTLAKWENNKLHVELPENIDKQSPTMTLIYDENGQLLWAQRDVPWLMKMIQPDWLKSNGFHEIEADVNDTSLLLSGDHSIQQQLQEVREDDDDAEMTHSVAVNVYPATSRMPKLTIVVVDTIPVELKSSYMVWSWFIYVLSANLLLVIPLLWVAAWWSLRPIEALAKEVRELEEHNRELLNPATTRELTSLVRNLNRLLKSERERYDKYRTTLTDLTHSLKTPLXXLQXXLRSLRSEKMSVSDAEPVMLEQISRISQQIGYYLHRASMRGGTLLSRELHPVAPLLDNLTSALNKVYQRKGVNISLDISPEISFVGEQNDFVEVMGNVLDNACKYCLEFVEISARQTDEHLYIVVEDDGPGIPLSKREVIFDRGQRVDTLRPGQGVGLAVAREITEQYEGKIVAGESMLGGARMEVIFGRQHSAPKDE

The variants in the experiment derive from B1. Description: enrichment ratio after two sorts for PhoP signalling (ratio (wild type AVST 3.29)); higher = more functional. Conditions: with PhoP (E. coli).
NWHS: the enrichment ratio was no more than 0.25.
As to WLYA, the enrichment ratio was no more than 0.25.
Take HKPT: the enrichment ratio is no more than 0.25.
Regarding NGGI, the enrichment ratio was no more than 0.25.
The same measure for YGSQ: no more than 0.25; for AVVF: 0.94.
KLPS: the enrichment ratio was no more than 0.25.
Regarding TFNP, the enrichment ratio is no more than 0.25.
With IITG, the enrichment ratio is no more than 0.25.
Take DCQF: the enrichment ratio is no more than 0.25.
Regarding YWCV, the enrichment ratio is no more than 0.25.
As for PMDT, the enrichment ratio is no more than 0.25.
On to FHRE, for which the enrichment ratio is no more than 0.25.
The same measure for LNSI: no more than 0.25; for FGHM: no more than 0.25; for LNEW: no more than 0.25.
SYQY: the enrichment ratio is no more than 0.25.
For the variant YNQI, the enrichment ratio is 0.676.
The same measure for FQGW: no more than 0.25; for LFFG: 0.356.
Consider VVFT, for which the enrichment ratio was no more than 0.25.
For the variant PYGE, the enrichment ratio was no more than 0.25.
The same measure for PEQI: no more than 0.25.
Turning to NWAL, the enrichment ratio was no more than 0.25.
Turning to IAGN, the enrichment ratio was no more than 0.25.
Then SANW, with no more than 0.25; and NYYC, with no more than 0.25; and LTAQ, with no more than 0.25.
In the case of KCQE, the enrichment ratio was no more than 0.25.
With VIWE, the enrichment ratio was no more than 0.25.
Regarding MQCM, the enrichment ratio stood at 8.31.
Take MTWM: the enrichment ratio is no more than 0.25.
Regarding VNCV, the enrichment ratio turned out to be 4.67.
As for TDKQ, the enrichment ratio was no more than 0.25.
On to RYIL, for which the enrichment ratio is no more than 0.25.
In the case of NTRF, the enrichment ratio was no more than 0.25.
In the case of GNTA, the enrichment ratio was no more than 0.25.
Regarding MNMY, the enrichment ratio was no more than 0.25.
Take VGKM: the enrichment ratio is no more than 0.25.
For RYMW, the enrichment ratio is no more than 0.25.
WDDI: the enrichment ratio is no more than 0.25.
For EHNL, the enrichment ratio is no more than 0.25.
SLKP: the enrichment ratio was no more than 0.25.
Regarding EANW, the enrichment ratio was no more than 0.25.
On to RFVR, for which the enrichment ratio is no more than 0.25.
For GHYH, the enrichment ratio is no more than 0.25.
For ANHH, the enrichment ratio is no more than 0.25.
As to TCYL, the enrichment ratio was determined as 16.2.
FLGC: the enrichment ratio was no more than 0.25.
WPFK: the enrichment ratio was no more than 0.25.
In the case of TFKQ, the enrichment ratio was no more than 0.25.
Then WGNW, with no more than 0.25; and HVQL, with no more than 0.25; and AKCQ, with 19.1.
On to FECK, for which the enrichment ratio was no more than 0.25.
On to FQMQ, for which the enrichment ratio was determined as 4.12.
As for NLFT, the enrichment ratio is no more than 0.25.
Take GTYV: the enrichment ratio was no more than 0.25.
Consider MKRG, for which the enrichment ratio is no more than 0.25.
Consider RASA, for which the enrichment ratio is no more than 0.25.
Consider LVKC, for which the enrichment ratio is no more than 0.25.
As to VGQE, the enrichment ratio is no more than 0.25.
With QSDK, the enrichment ratio is no more than 0.25.
As for PWWQ, the enrichment ratio is no more than 0.25.
As to SKCE, the enrichment ratio amounted to 5.46.
For the variant HKFL, the enrichment ratio was no more than 0.25.
Regarding SRQY, the enrichment ratio was no more than 0.25.
Then IRLK, with no more than 0.25; and SLPT, with no more than 0.25.
Then NTVY, with no more than 0.25; and HWMP, with no more than 0.25.
In the case of RTDG, the enrichment ratio is no more than 0.25.
For LPCC, the enrichment ratio is no more than 0.25.
On to WDWQ, for which the enrichment ratio was no more than 0.25.
With KGHV, the enrichment ratio is no more than 0.25.
On to NEPW, for which the enrichment ratio was no more than 0.25.
For YTDN, the enrichment ratio is no more than 0.25.
With LMMA, the enrichment ratio was no more than 0.25.
Take VCPA: the enrichment ratio was no more than 0.25.
Consider TARA, for which the enrichment ratio was no more than 0.25.
Take YANK: the enrichment ratio was no more than 0.25.
The same measure for YVIL: no more than 0.25.
The same measure for IAFK: no more than 0.25; for DMRT: no more than 0.25.
For LISR, the enrichment ratio was no more than 0.25.
Turning to PFHH, the enrichment ratio is no more than 0.25.
In the case of HHPR, the enrichment ratio is no more than 0.25.
Regarding QCFT, the enrichment ratio was no more than 0.25.
For the variant GTML, the enrichment ratio was 12.6.
For the variant NAHM, the enrichment ratio was no more than 0.25.
Take PRMS: the enrichment ratio is no more than 0.25.
Turning to MRDL, the enrichment ratio is no more than 0.25.
The same measure for MASD: no more than 0.25; for YGRW: no more than 0.25.
In the case of MRLH, the enrichment ratio was no more than 0.25.
Consider RAIS, for which the enrichment ratio was no more than 0.25.
Take GRDS: the enrichment ratio is no more than 0.25.
RMTC: the enrichment ratio was no more than 0.25.
As for AIFP, the enrichment ratio was no more than 0.25.
GSEP: the enrichment ratio is no more than 0.25.
Take VGMR: the enrichment ratio was no more than 0.25.
For the variant VMYR, the enrichment ratio is no more than 0.25.
Regarding SKVH, the enrichment ratio was determined as 3.04.
Regarding ATTT, the enrichment ratio is 5.96.
With QLQR, the enrichment ratio was no more than 0.25.
On to YCHW, for which the enrichment ratio is no more than 0.25.
For the variant AMVY, the enrichment ratio came to 5.71.
For the variant ETCG, the enrichment ratio was no more than 0.25.
As to KGTI, the enrichment ratio was no more than 0.25.
Turning to GCWK, the enrichment ratio is no more than 0.25.
As to RIHC, the enrichment ratio is no more than 0.25.
As to LWWF, the enrichment ratio was no more than 0.25.
As to TLHC, the enrichment ratio is no more than 0.25.
The same measure for YKGA: no more than 0.25; for RSID: no more than 0.25.
As for QKLL, the enrichment ratio turned out to be 5.58.
As for EYAR, the enrichment ratio is no more than 0.25.
Then WMDF, with no more than 0.25; and HHFW, with no more than 0.25.
Take NCDE: the enrichment ratio is no more than 0.25.
Turning to VFMT, the enrichment ratio was no more than 0.25.
As to LPLM, the enrichment ratio was no more than 0.25.
VMVH: the enrichment ratio was no more than 0.25.
Take RTMF: the enrichment ratio is no more than 0.25.
In the case of FQNR, the enrichment ratio is no more than 0.25.
For NWWP, the enrichment ratio was no more than 0.25.
Consider EDRA, for which the enrichment ratio is no more than 0.25.
Then TYSD, with no more than 0.25; and TANR, with no more than 0.25.
As to RSRF, the enrichment ratio is no more than 0.25.
As for WRML, the enrichment ratio is no more than 0.25.
On to QDHR, for which the enrichment ratio was no more than 0.25.
As for ILFF, the enrichment ratio is 0.321.
Regarding DHPQ, the enrichment ratio was no more than 0.25.
With QFKG, the enrichment ratio was no more than 0.25.
EASS: the enrichment ratio is no more than 0.25.
Then WSMY, with no more than 0.25.
Consider LTNT, for which the enrichment ratio was no more than 0.25.
The same measure for ASLG: 18.2.
DLED: the enrichment ratio was no more than 0.25.
For WELL, the enrichment ratio was no more than 0.25.
Regarding HTMK, the enrichment ratio was no more than 0.25.
For the variant NGNI, the enrichment ratio was no more than 0.25.
Consider MKLI, for which the enrichment ratio was found to be 3.78.
RDFR: the enrichment ratio was no more than 0.25.
Then GFTW, with no more than 0.25.
Then RTIN, with no more than 0.25; and SCKM, with no more than 0.25.
Regarding SPEN, the enrichment ratio is no more than 0.25.
Then QVMH, with no more than 0.25.
The same measure for HHGQ: no more than 0.25.
As for HFHV, the enrichment ratio is no more than 0.25.
Consider YLWN, for which the enrichment ratio was no more than 0.25.
